Measurements published in the supplement of paper PMC4166925.
± gives the standard deviation of the averaged measurements. The full ranking holds about 33,000 sequences; the median of “E-score (dimensionless, -0.5 to 0.5)” is about -0.049, and the highest 2% start at about 0.37. The list shows a part of the results.

System: T1, PmTbr T-box DNA-binding domain (GST fusion)
T1 sequence: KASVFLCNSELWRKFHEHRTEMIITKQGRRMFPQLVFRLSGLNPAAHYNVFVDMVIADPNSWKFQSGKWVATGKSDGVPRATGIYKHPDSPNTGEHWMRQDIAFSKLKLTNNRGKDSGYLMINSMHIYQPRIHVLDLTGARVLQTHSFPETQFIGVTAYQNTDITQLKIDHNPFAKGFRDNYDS
Assay: PBM E-score of 8-mer (E-score (dimensionless, -0.5 to 0.5)); Tbr is Tbrain of the sea star Patiria miniata (Pm) or the sea urchin Strongylocentrotus purpuratus (Sp); higher = stronger binding preference; most listed sequences are background and not binding sites
Settings: the construct has about 5 more residues each side
Method: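 Universal protein-binding microarray (Agilent AMADID 016060, 60-bp probes with a 35-bp variable region) incubated with 200 nM GST-fused Patiria miniata Tbr T-box DNA-binding domain (residues 272-466) in PBS pH 7.5. Scored for every ungapped 8-mer (given with its reverse complement) by the Universal PBM Analysis Suite as E-score (modified Wilcoxon-Mann-Whitney enrichment, range -0.5 to 0.5; >0.45 counts as bound) and Z-score of median probe intensity. Two replicate arrays (datasets 1 and 2).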
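Also: 200 nM protein in PBS on universal arrays averaged over duplicate arrays.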

Q: Which “PBM E-score of 8-mer” value does the source give for ATCATTGC here?
A: -0.15648 ± 4.9e-05

Q: For TGATACCA, which “PBM E-score of 8-mer” value is on record?
A: -0.0231 ± 0.066

Q: For AGACAAGC, which “PBM E-score of 8-mer” value is on record?
A: -0.0272 ± 0.021

Q: How did the “PBM E-score of 8-mer” value turn out when CTTCGGAC was run?
A: -0.095 ± 0.064

Q: AAACGCTC was tested. Which “PBM E-score of 8-mer” value did it give?
A: -0.231 ± 0.022

Q: How did the “PBM E-score of 8-mer” value turn out when CGTAGCAC was run?
A: 0.25 ± 0.0023

Q: With AATTGGGT as the sequence, how does the “PBM E-score of 8-mer” value read?
A: 0.0285 ± 0.094

Q: GAGAGATC was tested. Which “PBM E-score of 8-mer” value did it give?
A: -0.0303 ± 0.039

Q: Which “PBM E-score of 8-mer” value does the source give for TCGATGCA here?
A: -0.281 ± 0.051

Q: With AAATCGAC as the sequence, how does the “PBM E-score of 8-mer” value read?
A: 0.0677 ± 0.0049

Q: ATCGCCCA was tested. Which “PBM E-score of 8-mer” value did it give?
A: -0.0928 ± 0.011

Q: With CTGACGTC as the sequence, how does the “PBM E-score of 8-mer” value read?
A: -0.144 ± 0.03

Q: For AGCCGGCG, which “PBM E-score of 8-mer” value is on record?
A: -0.0345 ± 0.04

Q: With TCCGTAAA as the sequence, how does the “PBM E-score of 8-mer” value read?
A: 0.0342 ± 0.0079

Q: How did the “PBM E-score of 8-mer” value turn out when GTAGAGCA was run?
A: -0.196 ± 0.024

Q: Which “PBM E-score of 8-mer” value does the source give for ACACGACA here?
A: 0.198 ± 0.038

Q: How did the “PBM E-score of 8-mer” value turn out when ACAACGAT was run?
A: -0.0105 ± 0.005

Q: With CCCTCGGA as the sequence, how does the “PBM E-score of 8-mer” value read?
A: -0.2767 ± 0.0014

Q: CAGGCCGA was tested. Which “PBM E-score of 8-mer” value did it give?
A: -0.0705 ± 0.045

Q: With CTTCTCAC as the sequence, how does the “PBM E-score of 8-mer” value read?
A: 0.365 ± 0.01

Q: CGACCCAG was tested. Which “PBM E-score of 8-mer” value did it give?
A: -0.174 ± 0.039

Q: Which “PBM E-score of 8-mer” value does the source give for TCTGACCA here?
A: -0.269 ± 0.0061

Q: Which “PBM E-score of 8-mer” value does the source give for CCTCGCAC here?
A: 0.42 ± 0.014

Q: Which “PBM E-score of 8-mer” value does the source give for ACTCTGGG here?
A: -0.116 ± 0.055

Q: For AGCGCTCG, which “PBM E-score of 8-mer” value is on record?
A: 0.101 ± 0.095

Q: With CAAGCTGA as the sequence, how does the “PBM E-score of 8-mer” value read?
A: -0.156 ± 0.077

Q: CTTCCTTA was tested. Which “PBM E-score of 8-mer” value did it give?
A: -0.0298 ± 0.074

Q: How did the “PBM E-score of 8-mer” value turn out when CCCTGTGC was run?
A: -0.158 ± 0.024

Q: With GATGTTGA as the sequence, how does the “PBM E-score of 8-mer” value read?
A: -0.0175 ± 0.0044

Q: How did the “PBM E-score of 8-mer” value turn out when ACCCTACT was run?
A: 0.129 ± 0.007

Q: How did the “PBM E-score of 8-mer” value turn out when AAGGGGCA was run?
A: -0.322 ± 0.081

Q: Which “PBM E-score of 8-mer” value does the source give for GGGGTTTA here?
A: -0.00492 ± 1.4e-05

Q: For CAGTTGCC, which “PBM E-score of 8-mer” value is on record?
A: 0.132 ± 0.036

Q: Which “PBM E-score of 8-mer” value does the source give for ATTATGGA here?
A: -0.148 ± 0.028

Q: With AAATGGGT as the sequence, how does the “PBM E-score of 8-mer” value read?
A: 0.0414 ± 0.067

Q: For CTGATCTC, which “PBM E-score of 8-mer” value is on record?
A: -0.059 ± 0.072

Q: Which “PBM E-score of 8-mer” value does the source give for CAAATCTC here?
A: 0.0834 ± 0.033

Q: GCACAACC was tested. Which “PBM E-score of 8-mer” value did it give?
A: -0.0181 ± 0.11

Q: Which “PBM E-score of 8-mer” value does the source give for AGTTTCGG here?
A: -0.308 ± 0.0087

Q: With GAAACGCC as the sequence, how does the “PBM E-score of 8-mer” value read?
A: 0.103 ± 0.043

Q: How did the “PBM E-score of 8-mer” value turn out when TGCAGCAA was run?
A: -0.055 ± 0.007

Q: For GAGGCATC, which “PBM E-score of 8-mer” value is on record?
A: -0.228 ± 0.033

Q: With AGACAGGA as the sequence, how does the “PBM E-score of 8-mer” value read?
A: -0.136 ± 0.049

Q: Which “PBM E-score of 8-mer” value does the source give for CCGGGGGA here?
A: -0.172 ± 0.081

Q: Which “PBM E-score of 8-mer” value does the source give for ATGCAATG here?
A: -0.127 ± 0.0054

Q: For ATCGCTGC, which “PBM E-score of 8-mer” value is on record?
A: 0.0307 ± 0.026

Q: With CTTAAGAA as the sequence, how does the “PBM E-score of 8-mer” value read?
A: -0.0586 ± 0.033

Q: For AAACGGAC, which “PBM E-score of 8-mer” value is on record?
A: -0.153 ± 0.016

Q: How did the “PBM E-score of 8-mer” value turn out when GAGCCTGC was run?
A: -0.07 ± 0.07

Q: Which “PBM E-score of 8-mer” value does the source give for CATTATAC here?
A: 0.056 ± 0.021

Q: Which “PBM E-score of 8-mer” value does the source give for CTCATTCA here?
A: 0.122 ± 0.048

Q: With GCGTTGGA as the sequence, how does the “PBM E-score of 8-mer” value read?
A: 0.0932 ± 0.0039

Q: How did the “PBM E-score of 8-mer” value turn out when ATGAGCCC was run?
A: -0.244 ± 0.043

Q: With CCAGCCTC as the sequence, how does the “PBM E-score of 8-mer” value read?
A: -0.285 ± 0.046

Q: How did the “PBM E-score of 8-mer” value turn out when TAAAGCCA was run?
A: -0.299 ± 0.063

Q: With TCATGTCA as the sequence, how does the “PBM E-score of 8-mer” value read?
A: -0.0115 ± 0.029

Q: For CCAAGTCC, which “PBM E-score of 8-mer” value is on record?
A: -0.109 ± 0.013

Q: With AAGGCGCC as the sequence, how does the “PBM E-score of 8-mer” value read?
A: 0.235 ± 0.031

Q: With CTGGGATC as the sequence, how does the “PBM E-score of 8-mer” value read?
A: -0.0985 ± 0.035

Q: With GCCCGGAA as the sequence, how does the “PBM E-score of 8-mer” value read?
A: -0.0658 ± 0.049

Q: For CAGAATAG, which “PBM E-score of 8-mer” value is on record?
A: -0.127 ± 0.045

Q: ACGTCCTG was tested. Which “PBM E-score of 8-mer” value did it give?
A: 0.0715 ± 0.061

Q: With ACAAGGCT as the sequence, how does the “PBM E-score of 8-mer” value read?
A: 0.061 ± 0.047

Q: For CTAACATC, which “PBM E-score of 8-mer” value is on record?
A: -0.1377 ± 0.00032

Q: How did the “PBM E-score of 8-mer” value turn out when TACTCCGA was run?
A: -0.099 ± 0.054

Q: How did the “PBM E-score of 8-mer” value turn out when CCACCGCG was run?
A: 0.0653 ± 0.048

Q: How did the “PBM E-score of 8-mer” value turn out when TACGTCGA was run?
A: -0.0605 ± 0.057

Q: CCAGTGAG was tested. Which “PBM E-score of 8-mer” value did it give?
A: -0.186 ± 0.03

Q: With CCTGTCCA as the sequence, how does the “PBM E-score of 8-mer” value read?
A: 0.0333 ± 0.078

Q: AATCGTCC was tested. Which “PBM E-score of 8-mer” value did it give?
A: -0.25 ± 0.036

Q: For CGATGCCC, which “PBM E-score of 8-mer” value is on record?
A: -0.152 ± 0.027

Q: With ATTGGAGA as the sequence, how does the “PBM E-score of 8-mer” value read?
A: -0.252 ± 0.013

Q: For CGGTGCGA, which “PBM E-score of 8-mer” value is on record?
A: 0.35 ± 0.017

Q: For AATTGGAA, which “PBM E-score of 8-mer” value is on record?
A: -0.0872 ± 0.056

Q: For CCAGACGG, which “PBM E-score of 8-mer” value is on record?
A: -0.195 ± 0.04

Q: For ACAACTCA, which “PBM E-score of 8-mer” value is on record?
A: 0.185 ± 0.039

Q: AATTCGAT was tested. Which “PBM E-score of 8-mer” value did it give?
A: -0.0134 ± 0.093

Q: GTACTCAA was tested. Which “PBM E-score of 8-mer” value did it give?
A: -0.139 ± 0.016

Q: For ACGTGGGA, which “PBM E-score of 8-mer” value is on record?
A: 0.141 ± 0.018

Q: How did the “PBM E-score of 8-mer” value turn out when AGGCTATC was run?
A: -0.0954 ± 0.03

Q: Which “PBM E-score of 8-mer” value does the source give for AGAGGTTA here?
A: -0.0801 ± 0.022

Q: With AATCACCG as the sequence, how does the “PBM E-score of 8-mer” value read?
A: 0.0811 ± 0.036

Q: How did the “PBM E-score of 8-mer” value turn out when AATAGGAA was run?
A: -0.191 ± 0.036

Q: How did the “PBM E-score of 8-mer” value turn out when TGCCGAAA was run?
A: 0.161 ± 0.01

Q: With CCGCTATA as the sequence, how does the “PBM E-score of 8-mer” value read?
A: 0.106 ± 0.078

Q: GTAGCCAA was tested. Which “PBM E-score of 8-mer” value did it give?
A: -0.113 ± 0.016
